First the molecules themselves.
B1: Flag-TBK1 wild-type [human] / mCherry-OPTN wild-type [human] (parent complex)
chain 1: MQSTSNHLWLLSDILGQGATANVFRGRHKKTGDLFAIKVFNNISFLRPVDVQMREFEVLKKLNHKNIVKLFAIEEETTTRHKVLIMEFCPCGSLYTVLEEPSNAYGLPESEFLIVLRDVVGGMNHLRENGIVHRDIKPGNIMRVIGEDGQSVYKLTDFGAARELEDDEQFVSLYGTEEYLHPDMYERAVLRKDHQKKYGATVDLWSIGVTFYHAATGSLPFRPFEGPRRNKEVMYKIITGKPSGAISGVQKAENGPIDWSGDMPVSCSLSRGLQVLLTPVLANILEADQEKCWGFDQFFAETSDILHRMVIHVFSLQQMTAHKIYIHSYNTATIFHELVYKQTKIISSNQELIYEGRRLVLEPGRLAQHFPKTTEENPIFVVSREPLNTIGLIYEKISLPKVHPRYDLDGDASMAKAITGVVCYACRIASTLLLYQELMRKGIRWLIELIKDDYNETVHKKTEVVITLDFCIRNIEKTVKVYEKLMKINLEAAELGEISDIHTKLLRLSSSQGTIETSLQDIDSRLSPGGSLADAWAHQEGTHPKDRNVEKLQVLLNCMTEIYYQFKKDKAERRLAYNEEQIHKFDKQKLYYHATKAMTHFTDECVKKYEAFLNKSEEWIRKMLHLRKQLLSLTNQCFDIEEEVSKYQEYTNELQETLPQKMFTASSGIKHTMTPIYPSSNTLVEMTLGMKKLKEEMEGVVKELAENNHILERFGSLTMDGGLRNVDCL
chain 2: not shown

Variants of B1 are the subject of this assay. The assay can be described thus: co-immunoprecipitation (IP: Flag, IB: mCherry), quantified; HEK293T cells; parent: 1; read off a plot.
For the variant chain 1 T77I, the response was about 0.62 a.u.

Regarding chain 1 E696G, the response was about 5.7 a.u.

On to chain 1 E232Q, for which the response is about 1.6 a.u.

chain 1 I37T: the response was about 0.58 a.u.

The record behind these values is paper PMC11170894 (2024).
